pIC50: −log10 of the molar value.
biological target: T1, Lysine-specific histone demethylase 1A (Homo sapiens, UniProt O60341); experiment: Inhibition of LSD1 (unknown origin) using histone H3 (1 to 21) K4(Me1)-biotin peptide as substrate after 30 mins by HTRF assay; conditions: not given

Compound	pIC50
CC(=O)c1csc(NC(=O)c2ccccc2)n1	< 3.73
CC(=O)c1csc(NS(=O)(=O)c2ccccc2)n1	< 3.73
CS(=O)(=O)Nc1nc(-c2ccc(Cl)cc2)cs1	< 3.73
CC(=O)c1csc(NC(=O)Nc2ccccc2)n1	< 3.73
CC(=O)c1csc(Nc2ccccc2Cl)n1	< 3.73
O=C(Nc1nc(-c2ccc(Cl)cc2)cs1)c1ccccc1	< 3.73

system: THP-1; experiment: Cytotoxicity against human THP1 cells at > 50 uM after 24 hrs; type: ADME, cell-based; conditions: thp-1, 24 h

Compound	Activity
O=S(=O)(Nc1nc(-c2ccc(Cl)cc2)cs1)c1cccc(C(F)(F)F)c1	Toxic
O=S(=O)(Nc1nc(-c2cccc(Cl)c2)cs1)c1cccc(Cl)c1	Toxic
O=S(=O)(Nc1nc(-c2ccc(Cl)cc2)cs1)c1cccc(-c2ccccc2)c1	Toxic

biological target: T1, Lysine-specific histone demethylase 1A; conditions: at 125 µM

Compound	inhibition [%]
CC(=O)c1csc(Nc2ccccc2Cl)n1	35

biological target: T2, Amine oxidase [flavin-containing] A (Homo sapiens, UniProt P21397); experiment: Inhibition of MAO-A (unknown origin) assessed as oxidative deamination of kynuramine to 4-hydroxyquinoline after 30 mins by fluorescence assay; conditions: not given
T2 sequence (P21397 whole entry): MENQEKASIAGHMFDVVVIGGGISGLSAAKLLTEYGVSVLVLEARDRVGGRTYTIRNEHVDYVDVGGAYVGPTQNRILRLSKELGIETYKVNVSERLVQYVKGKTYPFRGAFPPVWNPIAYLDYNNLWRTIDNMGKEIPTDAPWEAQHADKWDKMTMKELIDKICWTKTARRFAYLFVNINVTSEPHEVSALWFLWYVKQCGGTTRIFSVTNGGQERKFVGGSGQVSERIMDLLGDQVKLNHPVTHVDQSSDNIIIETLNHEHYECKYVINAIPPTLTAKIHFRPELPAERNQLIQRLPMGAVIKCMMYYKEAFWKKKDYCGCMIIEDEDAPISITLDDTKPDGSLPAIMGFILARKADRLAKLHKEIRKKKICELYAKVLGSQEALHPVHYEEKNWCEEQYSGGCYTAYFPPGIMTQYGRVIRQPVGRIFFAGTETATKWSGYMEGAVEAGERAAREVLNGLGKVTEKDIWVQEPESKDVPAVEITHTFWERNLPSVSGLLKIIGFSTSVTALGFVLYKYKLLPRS

Compound	pIC50
O=[N+]([O-])c1ccc(S(=O)(=O)Nc2nc(-c3ccc(Cl)cc3)cs2)cc1	< 3.30
O=S(=O)(Nc1nc(-c2ccccc2)cs1)c1cccc(Cl)c1	4.17
O=S(=O)(Nc1nc(-c2ccccc2Cl)cs1)c1cccc(Cl)c1	< 3.30
Cc1cccc(S(=O)(=O)Nc2nc(-c3ccc(Cl)cc3)cs2)c1	4.42
O=[N+]([O-])c1ccccc1-c1csc(NS(=O)(=O)c2cccc(Cl)c2)n1	< 3.30
COc1ccc(S(=O)(=O)Nc2nc(-c3ccc(Cl)cc3)cs2)cc1	4.55
O=S(=O)(Nc1nc(-c2ccc(Cl)cc2)cs1)c1ccccc1C(F)(F)F	3.88
Cc1ccccc1S(=O)(=O)Nc1nc(-c2ccc(Cl)cc2)cs1	4.05
O=[N+]([O-])c1cccc(S(=O)(=O)Nc2nc(-c3ccc(Cl)cc3)cs2)c1	3.68
O=S(=O)(Nc1nc(-c2cccc(Cl)c2)cs1)c1cccc(Cl)c1	4.59
O=[N+]([O-])c1ccccc1S(=O)(=O)Nc1nc(-c2ccc(Cl)cc2)cs1	4.05
COc1ccc(-c2csc(NS(=O)(=O)c3cccc(Cl)c3)n2)cc1	5.19
O=S(=O)(Nc1nc(-c2ccc3c(c2)OCCO3)cs1)c1cccc(Cl)c1	5.32
Cn1nccc1-c1cncc(S(=O)(=O)Nc2nc(-c3ccc(Cl)cc3)cs2)c1	5.02
O=[N+]([O-])c1ccc(-c2csc(NS(=O)(=O)c3cccc(Cl)c3)n2)cc1	4.60
O=S(=O)(Nc1nc(-c2ccc(Br)cc2)cs1)c1cccc(Cl)c1	3.75
O=[N+]([O-])c1cccc(-c2csc(NS(=O)(=O)c3cccc(Cl)c3)n2)c1	3.93
O=S(=O)(Nc1nc(-c2cccc(Br)c2)cs1)c1cccc(Cl)c1	4.35
COc1cccc(-c2csc(NS(=O)(=O)c3cccc(Cl)c3)n2)c1	4.84

system: THP-1; experiment: Cytotoxicity against human THP1 cells after 24 hrs; type: ADME, cell-based; conditions: thp-1, 24 h

Compound	Activity
COc1ncccc1CNC1CC1c1ccccc1 (stereo not given)	> 20 µM
Cc1ccc(-c2ncc(OC[C@@H]3CCNC3)cc2-c2ccc(C#N)cc2)cc1	> 20 µM
C/C(=N\NC(=O)c1cccc(S(=O)(=O)N2CCOCC2)c1)c1ccc(Cl)cc1O	>= 2 uM

biological target: T1, Lysine-specific histone demethylase 1A; experiment: Inhibition of LSD1 (unknown origin) using H3K4 peptide as substrate; conditions: not given

Compound	pIC50
CSCCc1nc(-c2cccc(NC(=N)N)c2)oc1C	5.02

biological target: T1, Lysine-specific histone demethylase 1A; conditions: at 500 µM

Compound	inhibition [%]
CC(=O)c1csc(Nc2ccccc2Cl)n1	82

biological target: T1, Lysine-specific histone demethylase 1A; experiment: Inhibition of N-terminal 6X His-tagged human recombinant full-length LSD1 expressed in Escherichia coli BL21(DE3) using H3K4me2 (1 to 21) peptide as substrate at 10 uM after 3 hrs by chemiluminescence assay relative to control; conditions: not given

Compound	inhibition [%]
CSCCc1nc(-c2cccc(NC(=N)N)c2)oc1C	> 50

From ChEMBL document CHEMBL3132811, “Development and evaluation of selective, reversible LSD1 inhibitors derived from fragments” (Medchemcomm, 2013)
